Reference: ChEMBL document CHEMBL4834469, “Balancing Properties with Carboxylates: A Lead Optimization Campaign for Selective and Orally Active CDK9 Inhibitors” (ACS Med Chem Lett, 2021)
pIC50: −log10 of the molar value.

Key:
[1] = in vivo; details: Sprague-Dawley, rat, iv, 10 mg/kg
[2] = in vitro; details: human, plasma
[3] = in vivo; details: rat, po, 1 mg/kg
[4] = test system: NCI-H929; experiment: cells; details: Homo sapiens, NCI-H929, 24 h
[5] = in vivo; details: rat, po, 1 mg/kg; remark: listed apart in the source
[6] = in vivo; details: rat, iv, 1 mg/kg
[7] = in vivo; details: rat, iv, 1 mg/kg; remark: listed apart in the source
[8] = in vitro; details: rat, plasma

SMILES	concentration at 0.5 h [1] [ng/mL]	fraction unbound [2]	AUC [3] [ng·h/mL]	pIC50 [4]	bioavailability [5] [%]	half-life [6] [min]	Vd [7] [L/kg]	fraction unbound [8]
COc1ccc(F)cc1-c1ccnc2[nH]c(C3=CCNCC3)cc12	600							
COc1ccc(F)cc1-c1ccnc2[nH]c(C3=CCN(C(=O)CO)CC3)cc12	1900	0.027	56	6.89	20	43.8	3.1	0.046
COc1ccc(F)cc1-c1ccnc2[nH]c(C3=CCN(S(C)(=O)=O)CC3)cc12	2500		99		28	58.2	2.9	0.06
CNC(=O)N1CC=C(c2cc3c(-c4cc(F)ccc4OC)ccnc3[nH]2)CC1	3300	0.008			85	60	5.4	0.01
COc1ccc(F)cc1-c1ccnc2[nH]c(C3=CCN(CC(=O)O)CC3)cc12	6100	0.034		6.62	0	34.8	1	0.106
